Data on 85 compounds can be found in ChEMBL document CHEMBL4888484, “Replenishing the malaria drug discovery pipeline: Screening and hit evaluation of the MMV Hit Generation Library 1 (HGL1) against asexual blood stage Plasmodium falciparum ,using a nano luciferase reporter read-out” (2022).

Molecules are shown by their SMILES. Hit rate of the full screen: of about 150,000 compounds, about 540 (0.36%) showed an effect of 50% or more. This is one part of the list.

What is called % Inhibition is the change of the read-out against control, counted positive when it falls.

The assay has as its system Plasmodium falciparum. Kind of assay: Primary screen in NF54 nanoGlo assay, in single point, at 2uM, 72h; a lower Z score goes with more inhibition. The assay is classed as functional, Erythrocyte. Conditions: timepoint 72 hour.
Consider `CCCOc1cccc(CNCCCN(C)C)c1`, for which the “% Inhibition” value was found to be 0% and the Z score was -0.06.
In the same order, the values of `Cc1ccccc1CN1CCc2nc(N3CCC(C)CC3)ncc2C1` are 0% and 0.06.
The corresponding values for `N#Cc1cccnc1N1CC[C@H](c2ccccn2)C1` are -1% and 0.24.
In the same order, the values of `CN(C)C(=O)c1ccc(CN2CCc3ccc(Cl)cc32)[nH]1` are -15% and 1.58.
For `COc1ccc(C(=O)N2CC[C@H](c3noc(-c4cccnc4)n3)C2)cn1`, the “% Inhibition” value is reported as -9% and the Z score came to 1.11.
Regarding `O=C(NCC1(C2CC2)CC1)c1cnn2ncccc12`, the “% Inhibition” value is -7% and the Z score amounted to 1.03.
In the same order, the values of `COCC1(CNC(=O)c2ccc(-c3ccncc3C)cc2)CCC1` are 8% and -1.
In the same order, the values of `CC(C)c1nc(Cn2nnc([C@@H](NC(=O)c3ccccc3)C(C)C)n2)cs1` are -11% and 1.68.
The corresponding values for `N#Cc1ccc(NC[C@H](O)c2cccc(Br)c2)nc1` are -12% and 1.57.
`CCn1ccc(CC(=O)N2CCCc3c(OC)cc(OC)cc32)n1`: the “% Inhibition” value is listed as -2% and the Z score was 0.27.
In the same order, the values of `CCc1nc(N)sc1C(=O)N[C@H]1CC(=O)Nc2ccccc21` are -14% and 1.31.
The corresponding values for `Cc1nc(CN2CCC(n3nccc3NC(=O)c3cccc(F)c3)CC2)c[nH]1` are -10% and 0.89.
In the case of `CC[C@@H](CS(=O)(=O)c1ccccc1)NC(=O)NCc1cccnc1`, the “% Inhibition” value was 1% and the Z score is -0.11.
In the same order, the values of `COc1nc(OC)nc(-c2cccc3cccnc23)n1` are -7% and 0.95.
As for `CCc1nc(C)c(CN2CCC(CCC(=O)NC[C@H]3CCCO3)CC2)[nH]1`, the “% Inhibition” value is recorded as 6% and the Z score is -0.94.
Take `CCC(=O)N1CCCN(c2nc(Cc3ccccc3)nc3onc(-c4ccc(C(C)(C)C)cc4)c23)CC1`: the “% Inhibition” value was -10% and the Z score is given as 1.59.
`Cc1csc2ncnc(NCc3nnc([C@@H]4CCCO4)[nH]3)c12`: the “% Inhibition” value was -10% and the Z score is reported as 1.01.
`CC(C)(C)c1nc(Cn2nnc3ccccc3c2=O)no1`: the “% Inhibition” value is -1% and the Z score worked out at 0.2.
For the compound `N#Cc1cnc(NC[C@H](O)c2ccc(-c3ccccc3)cc2)cn1`, the “% Inhibition” value was 1% and the Z score is on record as -0.14.
In the same order, the values of `COc1ccccc1OC1(C(=O)O)CCN(Cc2cc3ccccc3o2)CC1` are -4% and 0.45.
In the same order, the values of `CCC(NC(=O)c1cc(C)cc(OC)c1O)C1CCOC1` (stereo not given) are 2% and -0.38.
As for `COCCS(=O)(=O)Nc1ccc(NCCO)c(C(F)(F)F)c1`, the “% Inhibition” value is -11% and the Z score was determined as 2.03.
`CC1(C)CC[C@H](Cn2cnc3c2CCCC3)O1`: the “% Inhibition” value is reported as -8% and the Z score was found to be 0.86.
The corresponding values for `CC1CCC(N(C)S(=O)(=O)c2ccc3c(c2)CCC3)CC1` (stereo not given) are 5% and -0.42.
With `CCCC[C@@H]1C[C@@H]1C(=O)N1CCC(n2cc(CC(C)C)nn2)CC1`, the “% Inhibition” value is given as -7% and the Z score stood at 1.06.
Regarding `Cc1nn(-c2ccccc2)c2c1N=C(c1ccccc1)C[C@@H](c1ccccc1)N2`, the “% Inhibition” value was -7% and the Z score was 1.1.
For the compound `COC(=O)C1CCCCCC1NCc1noc(C2CC2)n1` (stereo not given), the “% Inhibition” value is -17% and the Z score came to 1.76.
As to `O=C1CCc2cc(S(=O)(=O)N3C[C@@H]4[C@H](C3)[C@H]3CC[C@@H]4O3)ccc2N1`, the “% Inhibition” value is recorded as -14% and the Z score amounted to 2.65.
In the same order, the values of `O=C(Nc1cccnc1-n1cc(Cl)cn1)c1cccc(Br)c1` are -5% and 0.67.
For `COc1cncnc1NC(=O)N1CCN(c2c(F)cccc2F)CC1`, the “% Inhibition” value was -16% and the Z score is given as 2.55.
Regarding `C[C@@H](O)C(=O)N1CCC2(CC1)Cc1cccc(c1)Oc1cccc(c1)CCNC2=O`, the “% Inhibition” value is on record as -12% and the Z score is 1.48.
As to `CCCc1nccn1Cc1ccc(Cl)cn1`, the “% Inhibition” value is reported as -7% and the Z score came out at 0.84.
The corresponding values for `O=S(=O)(CC1CC(F)(F)C1)N[C@]12CCC[C@H]1OCC2` are -5% and 0.41.
In the same order, the values of `CC1CCC2(CC1)OC[C@@H](C(=O)N1CCCC1)N2C(=O)c1ccccc1` (stereo not given in full) are -8% and 0.78.
In the same order, the values of `COc1ccc(C2(c3nc(-c4ccc(=O)[nH]c4)no3)CC2)cc1` are -9% and 1.71.
Consider `O=C(Cn1cc(Cl)cn1)N1CCC(N2CCc3ccccc3C2)CC1`, for which the “% Inhibition” value is recorded as -14% and the Z score was 1.8.
The corresponding values for `COc1cccc(CO[C@@H]2CN(C(=O)CCc3scnc3C)CC(=O)N(Cc3ccccn3)C2)c1` are -2% and 0.22.
In the same order, the values of `CN(Cc1ccccc1)C(=O)C1C(c2cccc(NC(=O)c3ccccc3F)c2)OC(=O)N1Cc1ccccc1` (stereo not given) are -12% and 1.15.
Consider `CN1CCCC(N(C)C(=O)c2ccc(NC(=O)C(C(=O)O)C(C)(C)C)cc2)C1` (stereo not given), for which the “% Inhibition” value stood at 0% and the Z score amounted to 0.05.
As for `COC(=O)C1CCN2C(=O)N(c3ccc(OC(F)F)nc3)C(=O)C2C1` (stereo not given), the “% Inhibition” value is -11% and the Z score is 1.71.
`CC1(C)C2CN(C(=O)C3CCC(C(N)=O)CC3)CC21` (stereo not given): the “% Inhibition” value is listed as -4% and the Z score is 0.37.
The corresponding values for `CCC1(CC)CCCN(C(=O)c2cnn(C)c2)CC1` are -7% and 1.35.
The corresponding values for `CCc1cccc(NC(=O)N2CCN(C3=CC4=NC[C@H](C)N4C=N3)CC2)c1` are 58% and -5.02.
`CS(=O)(=O)c1ccc(S(=O)(=O)N2CCC[C@H](C(=O)c3cccc(Cl)c3)C2)cc1`: the “% Inhibition” value was -1% and the Z score amounted to 0.16.
In the same order, the values of `Cc1cc(C)c2c(c1)-c1c(ssc1=S)C(C)(C)N2C(=O)CCC1CCCCC1` are -5% and 0.64.
The corresponding values for `COC(=O)N[C@H](C(=O)Nc1ccc(Cl)cc1C)C(C)C` are 4% and -0.79.
The corresponding values for `CCNC(=O)[C@@H]1CCCN1C(=O)Nc1cccc(-c2ccccc2OC)c1` are 1% and -0.25.
For `CCCN1CCCN(C(=O)c2cccc3ccnn23)CC1`, the “% Inhibition” value stood at 1% and the Z score is on record as -0.17.
The corresponding values for `Cc1ccc(NC(=O)CN2CCn3cccc3[C@H]2c2ccc(F)cc2F)cc1C` are 0% and -0.02.
In the same order, the values of `CC[C@H]1C[C@@H](NC(C)=O)C[C@@H](c2c(C)ccc3ccccc23)O1` are -2% and 0.3.
In the same order, the values of `CO[C@@H](CNC(=O)N1CCC(c2nnc(CO)n2C)CC1)c1cccs1` are 12% and -1.71.
As to `O=C(Nc1cc(C2CCCC2)[nH]n1)c1cscn1`, the “% Inhibition” value was -15% and the Z score stood at 2.31.
On to `COc1ccc(CN(C(=O)N[C@H]2CC[C@H](O)CC2)C2CCCC2)c(OC)c1`, for which the “% Inhibition” value was 0% and the Z score is recorded as -0.09.
As for `CCN1CC[C@H](N(C)C(=O)Nc2ccc(N3CCOCC3)nc2)C1`, the “% Inhibition” value was -12% and the Z score stood at 1.51.
In the same order, the values of `Cc1nc(C#N)c(NCCc2ccccc2)o1` are 0% and -0.02.
As for `CCCc1nnc(N2CCc3[nH]c4ccccc4c3C2)s1`, the “% Inhibition” value was -1% and the Z score stood at 0.21.
Consider `CN(CCCn1cccn1)C(=O)[C@H]1CC(=O)N(C2CCCC2)C1`, for which the “% Inhibition” value is recorded as -14% and the Z score is on record as 1.84.
As to `Brc1cccc2c(N3CC(n4cccn4)C3)ncnc12`, the “% Inhibition” value amounted to 0% and the Z score was -0.05.
`OCCN(CCO)Cc1ccc(F)cc1F`: the “% Inhibition” value is on record as -3% and the Z score was 0.52.
The corresponding values for `CCOC(=O)N1CCN(Cc2ccc(-c3ccccc3C#N)o2)CC1` are -12% and 2.2.
The corresponding values for `CC(C)n1cnnc1[C@H](C)Nc1ncc(C#N)c(N)n1` are 4% and -0.73.
Take `Cc1nc2n(c1CCNC1=NS(=O)(=O)c3ccccc31)CCCC2`: the “% Inhibition” value was -7% and the Z score is 1.08.
In the same order, the values of `Cc1nn(-c2ccccc2)c(C)c1Cc1nc(C(C)C)no1` are 0% and 0.07.
The corresponding values for `Cc1cc(N2C(=O)C(C)CS2(=O)=O)ccc1S(=O)(=O)NCC(c1ccco1)N(C)C` (stereo not given) are 3% and -0.55.
`Clc1ccc2nc(NCc3noc(C4CC4)n3)sc2c1`: the “% Inhibition” value was -11% and the Z score is recorded as 1.32.
On to `Cc1ncc(CN2CC[C@](C(=O)O)(c3ccccc3)C2)s1`, for which the “% Inhibition” value was -10% and the Z score was 1.74.
In the case of `Cn1c(CN2CCCCCC2)nnc1C1CCN(C(=O)Cn2ccnn2)CC1`, the “% Inhibition” value is on record as -17% and the Z score is 2.35.
As for `CCc1nc(N)sc1C(=O)NC[C@H]1CCN(CC(C)C)C1`, the “% Inhibition” value is recorded as -6% and the Z score is reported as 1.1.
In the same order, the values of `O=C(c1cccc2c1CCCC2)N1CC2(CC2)C1` are 4% and -0.59.
In the same order, the values of `COCCN(CC1CCN(C)CC1)C(=O)c1nnc(C(C)(C)C)s1` are -5% and 0.98.
On to `Cc1ncc(CN2CCC[C@H](c3ccnn3C)C2)n1C`, for which the “% Inhibition” value is reported as 0% and the Z score is -0.08.
In the same order, the values of `Cc1ccc(CCC(=O)N[C@H]2CC(=O)N(C(C)C)C2)s1` are -2% and 0.22.
The corresponding values for `COC(=O)[C@H]1CC[C@H](C(=O)N(Cc2ccccn2)C(C)(C)C)CC1` are 1% and -0.15.
In the same order, the values of `CC(C)Cn1cc(NC(=O)[C@H]2CC(=O)N(C(C)C)C2)c(C(F)F)n1` are -9% and 0.78.
Consider `CO[C@@H](CS(=O)(=O)Nc1ncc2[nH]ccc2c1Br)C(C)C`, for which the “% Inhibition” value worked out at 1% and the Z score is on record as -0.11.
In the same order, the values of `CC1CN(CCC2CCOCC2)CC[S+]([O-])C1` (stereo not given) are 19% and -2.36.
As for `CCOc1ncccc1-c1nc(CC)n(C)n1`, the “% Inhibition” value was found to be 6% and the Z score is -0.97.
The corresponding values for `Cc1ncc(CN(Cc2cnn(C)c2)C2CC2)n1C` are -13% and 2.3.
The corresponding values for `CCOC1(c2nc(C3CC4CCC3N(C(=O)OC)C4)no2)CCCC1` (stereo not given) are 0% and -0.04.
On to `COc1ccc(CNC(=O)N2CCC3(CC2)C[C@@H]3c2noc(C)n2)cc1`, for which the “% Inhibition” value is reported as -6% and the Z score turned out to be 0.83.
The corresponding values for `O[C@H]1CCN(Cc2cc(-n3ccnc3)cs2)C12CCCC2` are 2% and -0.26.
The corresponding values for `Cc1cc(NS(=O)(=O)c2cccs2)n(-c2cc(C)c3cccc(C)c3n2)n1` are 2% and -0.21.
The corresponding values for `O=C(CCCc1nccs1)Nc1ccc2[nH]ncc2c1` are 2% and -0.3.
Consider `COCCn1c(-c2ccnn2C)nnc1N1CCC=C(C)C1`, for which the “% Inhibition” value is -2% and the Z score stood at 0.27.
On to `O=C(c1cc[nH]n1)N1CCC2(CC1)C[C@@H](Cc1cccc(F)c1)CCO2`, for which the “% Inhibition” value is on record as -20% and the Z score was determined as 2.53.
